According to the BET-seq Pho4 binding data (Le et al. 2018):
Some of the results follow. Values were computed here from the reads of four pooled replicates and scatter widely.

biological target: T1, Pho4 (S. cerevisiae) (UniProt P07270); test: relative binding free energy (BET-seq); higher = weaker binding; conditions: reference: library average
T1 sequence: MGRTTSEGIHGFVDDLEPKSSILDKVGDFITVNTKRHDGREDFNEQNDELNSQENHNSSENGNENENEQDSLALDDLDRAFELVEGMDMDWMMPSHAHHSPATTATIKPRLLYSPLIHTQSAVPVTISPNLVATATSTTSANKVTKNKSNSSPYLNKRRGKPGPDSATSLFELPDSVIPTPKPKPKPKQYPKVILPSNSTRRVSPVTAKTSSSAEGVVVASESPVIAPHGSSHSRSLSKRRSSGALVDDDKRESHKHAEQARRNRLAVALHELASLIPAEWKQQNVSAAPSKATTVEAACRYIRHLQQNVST

Row | Sequence | relative binding free energy
1 | TGGCGCACGTGGGGCG | -0.21 kcal/mol
2 | AGCTGCACGTGTAGTG | -0.09 kcal/mol
3 | TGTTGCACGTGTGTGT | 0.11 kcal/mol
4 | GAGGACACGTGTGTAT | 0.23 kcal/mol
5 | GGGGTCACGTGTTACG | 0.11 kcal/mol
6 | ACGTTCACGTGCTGGG | 0.15 kcal/mol
7 | TTCAGCACGTGTATGT | -0.18 kcal/mol
8 | GGCATCACGTGTTAAG | 0.25 kcal/mol
9 | GTGCACACGTGGGTAA | -0.01 kcal/mol
10 | AGGCACACGTGGTGGG | -0.04 kcal/mol
11 | TGGCGCACGTGGGGCA | -0.34 kcal/mol
12 | ATGAACACGTGATATG | 0.16 kcal/mol
13 | TTTAGCACGTGCTAGT | -0.17 kcal/mol
14 | GATTGCACGTGAGCGG | 0.26 kcal/mol
15 | AAAGACACGTGCGTGT | 0.05 kcal/mol
16 | GGGGCCACGTGAGTGG | 0.05 kcal/mol
17 | TGTACCACGTGTAGGC | 0.11 kcal/mol
18 | GCTTTCACGTGATTAT | 0.29 kcal/mol
19 | GGTGTCACGTGGAACA | 0.11 kcal/mol

Row | Sequence | relative binding free energy
20 | GGAATCACGTGTCAGG | 0.28 kcal/mol
21 | TGTCCCACGTGGAGGT | -0.15 kcal/mol
22 | TTCAGCACGTGTGGCG | -0.04 kcal/mol
23 | TTATGCACGTGTTGCA | -0.1 kcal/mol
24 | AAGGACACGTGCAGGG | 0.04 kcal/mol
25 | GAAGACACGTGTTTTG | 0.12 kcal/mol
26 | GGTGTCACGTGCCTGT | 0.03 kcal/mol
27 | TGGCTCACGTGAGGTA | 0.3 kcal/mol
28 | TGTGGCACGTGTTCGA | 0.02 kcal/mol
29 | CCGGTCACGTGCGGGG | -0.11 kcal/mol
30 | GGGGACACGTGAAGTA | 0.26 kcal/mol
31 | GTCTGCACGTGATAGT | 0.16 kcal/mol
32 | TGGGGCACGTGTTATA | -0.02 kcal/mol
33 | ATTGGCACGTGGAAGT | -0.04 kcal/mol
34 | ATGGTCACGTGGTGTA | 0.05 kcal/mol
35 | TTCGGCACGTGGGGTA | -0.21 kcal/mol
36 | TGGAACACGTGAAAGG | 0.32 kcal/mol
37 | ATCAACACGTGTGGGT | 0.06 kcal/mol
38 | AGGTTCACGTGTGTGT | 0.32 kcal/mol

Row | Sequence | relative binding free energy
39 | TTAGCCACGTGAGTAT | 0.16 kcal/mol
40 | TGAGACACGTGGAGAG | 0.03 kcal/mol
41 | AGGGACACGTGCCTGG | -0.04 kcal/mol
42 | GGGTGCACGTGGCGGT | -0.04 kcal/mol
43 | GTGTACACGTGTGTAG | 0.1 kcal/mol
44 | CGGGGCACGTGTTTAA | -0.09 kcal/mol
45 | AGGTTCACGTGCATGA | 0.33 kcal/mol
46 | AATTGCACGTGCTTGG | -0.06 kcal/mol
47 | TATAACACGTGGCGGT | -0.04 kcal/mol
48 | TGTGTCACGTGTGTCC | 0.08 kcal/mol
49 | GTGTGCACGTGGACAG | 0.03 kcal/mol
50 | GTCGGCACGTGGTTGC | -0.11 kcal/mol
51 | CTGCTCACGTGGGCGT | 0.16 kcal/mol
52 | AATCGCACGTGGTGGA | -0.07 kcal/mol
53 | TGTAACACGTGACTTG | 0.13 kcal/mol
54 | TGATGCACGTGGGGCC | -0.13 kcal/mol
55 | GACGGCACGTGGGGAT | -0.23 kcal/mol
56 | TGCGTCACGTGAGCGG | 0.16 kcal/mol
57 | TATCTCACGTGAGGAG | 0.37 kcal/mol
